PubChem BioAssay AID488969 (Vanderbilt High Throughput Screening Facility, 2010)
Whole data set: some 110,000 compounds, median “z-score” near -0.1, cut for the highest 2% near 2. This is one part of the list.

The molecules below were run against Metabotropic glutamate receptor 8 (Rattus norvegicus) (UniProt P70579) (assay: rat mGluR8 modulators via GIRK flux, primary screen, cell-based, thallium flux, HTS (AID 488969)). Details: HEK293 rat mGluR8, GIRK (G protein-gated inwardly rectifying potassium channel) thallium flux, FluoZin2; at 10 µM; stronger effect = higher value; submaximal glutamate (EC20) added with thallium.
UniProt P70579, sequence (P70579 whole entry, looked up): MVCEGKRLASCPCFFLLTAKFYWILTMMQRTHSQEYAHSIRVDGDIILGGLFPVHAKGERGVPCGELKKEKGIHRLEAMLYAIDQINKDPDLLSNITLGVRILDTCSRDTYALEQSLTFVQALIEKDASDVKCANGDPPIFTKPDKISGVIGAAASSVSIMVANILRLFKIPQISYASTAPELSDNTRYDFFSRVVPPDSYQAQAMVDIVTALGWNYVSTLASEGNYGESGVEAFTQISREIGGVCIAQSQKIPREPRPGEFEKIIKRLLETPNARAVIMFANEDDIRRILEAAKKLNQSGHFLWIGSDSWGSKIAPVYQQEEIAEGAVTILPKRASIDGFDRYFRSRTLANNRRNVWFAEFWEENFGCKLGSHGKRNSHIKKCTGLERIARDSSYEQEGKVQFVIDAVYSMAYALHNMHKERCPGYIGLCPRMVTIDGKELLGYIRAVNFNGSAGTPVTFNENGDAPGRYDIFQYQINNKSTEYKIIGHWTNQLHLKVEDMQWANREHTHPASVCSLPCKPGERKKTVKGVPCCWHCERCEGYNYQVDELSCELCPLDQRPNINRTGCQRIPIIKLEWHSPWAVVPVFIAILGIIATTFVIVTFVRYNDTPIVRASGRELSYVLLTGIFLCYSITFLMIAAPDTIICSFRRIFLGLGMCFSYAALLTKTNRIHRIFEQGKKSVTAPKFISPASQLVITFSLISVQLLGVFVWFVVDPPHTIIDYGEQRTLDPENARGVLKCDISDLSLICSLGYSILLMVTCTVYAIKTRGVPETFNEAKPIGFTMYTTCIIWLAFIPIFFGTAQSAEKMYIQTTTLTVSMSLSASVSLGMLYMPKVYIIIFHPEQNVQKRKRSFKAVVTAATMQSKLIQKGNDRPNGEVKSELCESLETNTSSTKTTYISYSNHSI
With `CCc1ccc2c(c1)cc(CN(C(=S)Nc1ccccc1)C1CC1)c1nnnn12` the z-score was -0.065. `CCCOc1ccc(C(=O)CCNc2ccc(C)c(Cl)c2)cc1` showed a z-score of 0.145. With `CCc1nc(SCC(=O)c2ccc(Cl)s2)c2oc3ccccc3c2n1` the z-score was -0.385. `COc1cc(/C=N/NC(=O)CNC(=O)c2ccccc2)ccc1OC(=O)c1cccs1` was tested, and the z-score was -0.346. In the case of `CCCCC12CN3CCN(CC(C3)/C1=N\NC(=O)c1ccccc1N)C2`, the z-score was -0.264. Work on `Cc1ccccc1N1C(=O)N(c2cccc(C(F)(F)F)c2)C2CS(=O)(=O)CC21` (stereo not given) yielded a z-score of -0.217. Work on `COc1cccc(C2C(C(=O)c3cccs3)=C(O)C(=O)N2CCN(C)C)c1OC` (stereo not given) yielded a z-score of -0.283. In the case of `COc1cc(C2C3C(C)N(C)C(=O)N(C)C3N(C)C(=O)N2C)ccc1O` (stereo not given), the z-score was 0.84. In the case of `CCCCN(C)Cc1c(O)ccc2c(-c3ccccc3)cc(=O)oc12`, the z-score was -0.434. Work on `O=C1Nc2ccc(Br)cc2C1(O)Cc1ccncc1` (stereo not given) yielded a z-score of -0.201. Molecule `CCc1nnc(NC(=O)CCc2ccc(C)o2)s1` has a z-score of 0.332. Work on `Cc1cccc(/N=C/c2c(O)[nH]c3ccccc23)n1` yielded a z-score of -0.0825. In the case of `CCCC(=O)NC(=S)Nc1sc2c(c1C(N)=O)CCC2`, the z-score was -0.327. `COc1ccc(N=NC2=C(O)CC(C)(C)CC2=O)cc1` was tested, and the z-score was -0.0779. For `Cc1cccc(Nc2nc(NCCCN3CCOCC3)nc(N)c2[N+](=O)[O-])c1`, the z-score was -0.234. Molecule `COc1ccc(Nc2nc(=O)[nH]nc2C)cc1` has a z-score of 0.11. Work on `O=S(=O)(/C=C/c1ccccc1)N1CCN(c2ccc(F)cc2)CC1` yielded a z-score of -0.241. `COc1cc(NC(=O)CN2C(=O)NC(C)(c3ccccc3)C2=O)c(C)cc1[N+](=O)[O-]` (stereo not given) gave a z-score of 1.12. `CCOC(=O)c1c(NC(C)=O)sc2c(O)c(Br)cc(Br)c12` showed a z-score of -0.567. With `O=C1CC(c2ccccc2)CN1Cc1ccccc1` (stereo not given) the z-score was 0.791. `CCN(CC)c1ccc(NC(=O)CSc2nc3ccccc3c(=O)[nH]2)cc1` showed a z-score of -0.106. In the case of `CCC1c2ccc(C)n2CCN1C(=O)Nc1ccccc1OC` (stereo not given), the z-score was -1.35. `COc1cc2c(cc1O)CCN(C(=O)c1ccco1)C2C` (stereo not given) showed a z-score of 0.122. `Cc1c(NC(=O)c2ccc(N3CCCC3)c([N+](=O)[O-])c2)cccc1-c1nc2ccccc2s1` showed a z-score of -0.013. Molecule `CCOc1cc(NC(=O)c2ccccc2[N+](=O)[O-])c(OCC)cc1NC(=O)CC(C)C` has a z-score of -0.494. In the case of `COc1cc(NS(=O)(=O)c2ccc(NC(=O)COc3ccccc3Cl)cc2)nc(OC)n1`, the z-score was 0.192. For `CC1=NC(=O)C(N=Nc2cccc3ccccc23)N1c1ccccc1` (stereo not given), the z-score was 0.878. In the case of `Cc1c(N=Cc2c(O)n(C3CCCCC3)c(=O)[nH]c2=O)c(=O)n(-c2ccccc2)n1C`, the z-score was -0.658. Work on `O=C(CCl)NC(=O)NC12CC3CC(CC(C3)C1)C2` yielded a z-score of -0.184. For `CCC1Nc2ccccc2-c2nnc(SC)nc2O1` (stereo not given), the z-score was -0.245. In the case of `CCCN(CC(=O)c1cc(C)n(C)c1C)S(=O)(=O)c1cccc(C(F)(F)F)c1`, the z-score was -0.232. Molecule `CCOC(=O)C1CCN(Cc2cnc(Oc3ccc(OC)cc3)s2)CC1` has a z-score of -0.0583. Work on `CCn1c(C)nc2cc(S(=O)(=O)C(F)F)ccc21` yielded a z-score of -0.152. Molecule `COc1ccc(C(C(=O)NC2CCCC2)N(Cc2ccc(F)cc2)C(=O)c2ccn[nH]2)cc1OC` (stereo not given) has a z-score of 0.0155. For `COC(=O)N/N=C(\C)c1ccccc1Br`, the z-score was -0.0179. Work on `Cc1cccc(C)c1NC(=S)NC(C)CCc1ccccc1` (stereo not given) yielded a z-score of 0.107. `Cc1ccc(-c2cc(C(=O)O)n[nH]2)o1` was tested, and the z-score was -0.0668. `CCOC(=O)/C(=C\c1ccc([N+](=O)[O-])o1)NC(=O)c1ccccc1` was tested, and the z-score was -0.483. `Cc1cc(NS(=O)(=O)c2ccc(NC(=O)CSc3nnc(-c4ccco4)n3C)cc2)nc(C)n1` showed a z-score of 0.225. In the case of `Cc1ccc(CS(=O)(=O)CCC(=O)NCCN(C)Cc2ccccc2)cc1`, the z-score was -0.171. Molecule `Cc1cc(NC(=O)c2cc(S(=O)(=O)N3CCCCC3)ccc2C)n(-c2ccccn2)n1` has a z-score of -0.277. `C=CCn1c(SCc2nc(N)nc(N(C)C)n2)nnc1-c1cccnc1` was tested, and the z-score was -0.0663. In the case of `Cc1ccc(CSc2ncnc3c2cnn3-c2ccccc2)cc1`, the z-score was 0.333. `CS(=O)(=O)N(CC(=O)Nc1ccc2c(c1)OCO2)Cc1ccccc1` was tested, and the z-score was 0.302. `CCOc1cc(NC(=S)Nc2ccccc2)c(OCC)cc1NC(=O)c1ccc(OC)cc1` gave a z-score of -0.0189. `COCCn1nnnc1CN(CCc1ccccc1)Cc1cc2ccc(C)cc2[nH]c1=O` showed a z-score of -0.49. With `Cc1nnsc1C(=O)Nc1ccccc1` the z-score was -0.129. `Cc1onc(-c2ccccc2)c1C(=O)N/N=C(\N)COc1ccc(Cl)cc1` showed a z-score of -0.0322. `COc1ccc(CCCc2nnc(SCC(=O)Nc3nccs3)n2C)cc1C` gave a z-score of -0.262. With `O=C(Nc1ccc(F)cc1)c1oc2ccccc2c1NC(=O)C1CCCC1` the z-score was 0.116. `CCOc1ccc(NC2c3ccccc3C(=O)N2Cc2ccco2)cc1` (stereo not given) showed a z-score of -1.26. Work on `COc1ccc(CCNC(=O)C(=O)NCC2CCCO2)cc1` (stereo not given) yielded a z-score of -0.148. `COc1ccc(N(CC(=O)NCc2ccccc2)S(=O)(=O)c2c(C)nn(C)c2C)cc1` showed a z-score of -0.684. Molecule `CCNc1nc(NC(C)C)nc(N(C#N)CCOc2ccccc2)n1` has a z-score of -1.35. `COC(=O)COc1ccccc1C(=O)Nc1ccc(OC)cc1` showed a z-score of -0.266. Molecule `CNC(=O)Nc1ccc2snnc2c1` has a z-score of 0.0826. For `CC1CN(C(=O)c2ccccc2NS(=O)(=O)c2cccc([N+](=O)[O-])c2)CC(C)O1` (stereo not given), the z-score was 0.672. For `Cc1ccc(CC2C(=O)N(CC(=O)O)C(=O)C2C)cc1` (stereo not given), the z-score was -0.277. `Clc1ccc(-c2csc(N/N=C/c3ccc4c(c3)OCO4)n2)cc1` was tested, and the z-score was -0.152. `Cc1ccc(C)n1-c1sccc1C(=O)O` was tested, and the z-score was 0.121. `NC(=O)c1ccsc1NC(=O)CSc1ccccc1F` was tested, and the z-score was 0.571. `CC1CCCCN1C(=S)NCc1ccccc1` (stereo not given) was tested, and the z-score was -0.00966. `CN(C)C(=O)Cn1c(SCC(=O)Nc2ccc3c(c2)OCO3)nc2ccccc21` gave a z-score of -0.277. For `N#Cc1cc2ccccc2nc1SCC(=O)Nc1ccccc1N1CCOCC1`, the z-score was 0.286. In the case of `Cc1ccc(C(=O)N[C@H](C(=O)OCc2cc(=O)oc3cc(C)ccc23)C(C)C)cc1`, the z-score was -0.0948. Molecule `O=S(=O)(c1ccc(S(=O)(=O)N2CCCC2)cc1)N1CCCCCC1` has a z-score of 0.224. `O=C(COC(=O)/C=C/c1cccc(C(F)(F)F)c1)Nc1cccc2ccccc12` was tested, and the z-score was -0.0579. `CC(C)N(Cc1nc(-c2ccccc2)no1)C(=O)COc1ccccc1` gave a z-score of -0.0374. With `CCOc1ccc(Oc2ccc(-c3nnc(-c4ccccc4)o3)cc2[N+](=O)[O-])cc1` the z-score was 0.352. `CN(C1=C(N2CCCCC2)C(=O)c2ccccc2C1=O)c1ccccc1` showed a z-score of -0.138. With `CN(C)/C(=N\OC(=O)c1ccccc1)c1nonc1N` the z-score was -0.235. `Cn1c(SCC(=O)c2ccc3c(c2)OCCO3)nnc1C1CC1` gave a z-score of -0.0904. With `Nc1ccccc1Nc1cc(-c2ccccc2)nn1-c1ccccc1` the z-score was -0.185. Molecule `N#C/C(=C\c1cn(CC(=O)N2CCCCC2)c2ccccc12)C(=O)NCc1ccc2c(c1)OCO2` has a z-score of -0.175. `COC(=O)c1c(NC(=O)c2c(-c3ccccc3Cl)noc2C)sc2c1CCC2` gave a z-score of -0.159. `Cc1ccccc1OCCCCn1cnc2ccccc21` gave a z-score of -0.53. `OCCN1CCN(C(=S)c2ccc(Cl)c(Cl)c2)CC1` was tested, and the z-score was 0.482. For `CC1CCN(C(=O)Cn2cc(C(=O)C3CC3)c3ccccc32)CC1`, the z-score was 1.02. `Nc1ccccc1-c1nnn(CC(=O)N2CCCc3ccccc32)n1` showed a z-score of -0.663. With `CCCCC(=O)Nc1ccc(NC(=O)C2CC2)cn1` the z-score was 0.324. For `Cc1ccc(Nc2nnc(SC(C)C(=O)Nc3c(C)n(C)n(-c4ccccc4)c3=O)s2)cc1` (stereo not given), the z-score was -0.358. `CCN=C1S/C(=C\c2cn(CC)c3ccccc23)C(=O)N1CC` was tested, and the z-score was 0.0534. `O=C1c2ccc(-c3nc4ccccc4o3)cc2C(=O)N1Cc1cccnc1` was tested, and the z-score was 0.256. `CN=C1SC(CC(=O)Nc2sc3c(c2C#N)CCCC3)C(=O)N1C` (stereo not given) gave a z-score of -0.258. `CSc1nc(-c2ccccc2)nc(SC)c1C(C)=O` gave a z-score of -0.493. In the case of `CCOC(=O)CSc1nc(-c2ccncc2)ccc1C#N`, the z-score was -0.506. Work on `CCc1nnc(NS(=O)(=O)c2ccc(N3C(=O)C4CC=C(Cl)CC4C3=O)cc2)s1` (stereo not given) yielded a z-score of 0.798. Work on `O=C(OCCN1CCCCC1)c1cc2ccccc2o1` yielded a z-score of -0.063. `CCNC(=O)NC(=O)C(C)OC(=O)CCCSc1nc2ccccc2s1` (stereo not given) showed a z-score of 0.637. `O=C1C(Cc2ccccc2)C(c2ccccc2)N1c1ccccc1` (stereo not given) was tested, and the z-score was 0.0188. `Cc1c(Oc2ccc(C(F)(F)F)cc2[N+](=O)[O-])ccc2c3c(c(=O)oc12)CCC3` showed a z-score of -0.0741. `O=C(CN1CC(c2ccccc2)CC1=O)N/N=C/c1cc(Br)ccc1O` (stereo not given) gave a z-score of -0.0975. `O=[N+]([O-])c1ccccc1-c1cc(-c2cc(Cl)ccc2O)n[nH]1` was tested, and the z-score was -0.0283. In the case of `CC(=O)N(/N=C1\Sc2ccccc2C1=O)c1ccccc1C`, the z-score was -0.0744. For `CCOc1cc(C(=S)N2CCOCC2)ccc1OS(=O)(=O)c1ccc(NC(C)=O)cc1`, the z-score was -0.00944. With `COC(=O)C1=C(C)N(C)C(C)=C(C(=O)OC)C1c1cccc(Br)c1` the z-score was -0.431. Work on `COc1ccc(CNc2nc(-c3ccccc3)nn2C(=O)c2ccc([N+](=O)[O-])cc2)cc1` yielded a z-score of -0.158. `O=C(Nc1nc(-c2ccc(S(=O)(=O)N3CCOCC3)cc2)cs1)c1ccccc1` gave a z-score of 0.152. With `O=C(N/N=C/C=C/c1ccccc1)C(O)c1ccccc1` (stereo not given) the z-score was -0.147. With `Cc1cc(=O)oc2c(N)c(O)ccc12` the z-score was -0.00626. `CC(C)OC(=O)c1cc2c(ccn2C)n1CC(=O)N1CCC(Cc2ccccc2)CC1` was tested, and the z-score was -1.05. With `CN(C)CCN1C(=O)c2oc3ccc(F)cc3c(=O)c2C1c1ccncc1` (stereo not given) the z-score was -0.265. `CN(C)CCN1C(=O)C(O)=C(C(=O)c2cc3ccccc3o2)C1c1cccc(Br)c1` (stereo not given) was tested, and the z-score was -0.703. `CC1Nc2nc(N(C)C)[nH]c(=O)c2NC1C` (stereo not given) was tested, and the z-score was 0.838. `N#Cc1ccc(Oc2cc(C(F)(F)F)nc(-c3ccccn3)n2)cc1` gave a z-score of -0.415. For `CCOC(=O)Cn1c(=O)n(CC(=O)OCC)c2ccccc21`, the z-score was 0.315. In the case of `CCCCCCn1nc(C(=O)Nc2nc3c(s2)CCCC3)c2ccccc2c1=O`, the z-score was 0.294. `O=C(NC1CCCCC1)C(c1ccncc1)N(Cc1ccc2c(c1)OCO2)C(=O)C(F)(F)F` (stereo not given) was tested, and the z-score was -0.126. Work on `CC1=C(C(=O)OC2CCCCC2)C(c2ccco2)n2ncnc2N1` (stereo not given) yielded a z-score of -2.11. In the case of `CCCCNC(=O)CO/N=C(\C)c1cc2ccccc2o1`, the z-score was 0.924.
